# Laboratory results as given in PubChem BioAssay AID2147 (National Center for Advancing Translational Sciences (NCATS), 2009).
# Among all 230,000 compounds or so, about 3,600 (1.6%) were called active. Inconclusive means that the source gave no clear call. Such entries were picked first, then a sample of the others. The call rests on the fitted dose curve; in most records, active means well fitted inhibition curve with a large enough effect (not every such curve was filed as active); inconclusive means small, poorly fitted or top-dose-only effect, or another doubt; inactive means no such curve, though single readings can be large or run the other way. A potency beside an inconclusive call is a rough fit, not a confirmed value.
# Molecular target: Lysine-specific demethylase 4E (Homo sapiens) (UniProt B2RXH2)
# Experiment: qHTS Assay for Inhibitors of Human Jumonji Domain Containing 2E (JMJD2E)
# Conditions: JMJD2E catalytic domain, FDH-coupled NADH fluorescence (FDH is formaldehyde dehydrogenase); series mostly up to 57.1 µM
# Further: nearly all actives have a fitted effect of over 50% in size.
# Potency means the concentration at half of the fitted maximal effect; tags describe the fitted curve by direction and shape.
# UniProt B2RXH2, sequence (B2RXH2 whole entry, looked up, the tested form may be a part): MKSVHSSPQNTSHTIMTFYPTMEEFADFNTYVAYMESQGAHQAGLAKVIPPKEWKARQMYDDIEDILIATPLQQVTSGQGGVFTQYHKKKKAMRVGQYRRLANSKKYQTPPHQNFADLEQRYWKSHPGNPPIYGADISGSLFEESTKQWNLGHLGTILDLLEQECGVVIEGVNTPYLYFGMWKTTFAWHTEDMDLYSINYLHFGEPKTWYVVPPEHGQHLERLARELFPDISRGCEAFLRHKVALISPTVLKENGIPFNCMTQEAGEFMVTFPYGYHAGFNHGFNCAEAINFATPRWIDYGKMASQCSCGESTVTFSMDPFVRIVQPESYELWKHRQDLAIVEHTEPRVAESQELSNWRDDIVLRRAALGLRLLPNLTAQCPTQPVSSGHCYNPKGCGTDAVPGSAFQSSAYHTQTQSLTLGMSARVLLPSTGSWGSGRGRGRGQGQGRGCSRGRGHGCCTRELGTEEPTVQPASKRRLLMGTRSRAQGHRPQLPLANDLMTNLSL
row,SMILES,Potency
1,Cn1cc(-c2ccc(Cl)cc2)cc(C#N)c1=O,"inconclusive: 31.6 µM [inhibitor, partial curve]"
2,C[C@H](NC(=O)c1nc[nH]c1C(=O)N[C@H](C)c1ccccc1)C(=O)OCc1ccccc1,inactive
3,CCCC(=O)c1ccc(-c2ccccc2)cc1,inactive
4,O=C(COC(=O)c1c(Cl)cccc1Cl)NC1CCCCC1,inactive
5,CCN(CC)S(=O)(=O)c1ccc2oc(C(=O)NCc3ccc(C)cc3)c(C)c2c1,inactive
6,COc1cccc(NS(=O)(=O)c2ccc3c(c2)C2C=CCC2C(c2ccc(C(=O)O)cc2)N3)c1 (stereo not drawn),"inconclusive: 5.01 µM [inhibitor, single point]"
7,Cc1ccc(S(=O)(=O)NCCCN2CCOCC2)cc1C,inactive
8,COc1ccc(-c2cn3cc(Br)cnc3n2)cc1,"inconclusive: 1 µM [inhibitor, full curve]"
9,CC(=O)Nc1ccc(C2=NNC(=Nc3cccc(S(=O)(=O)N(C)C)c3)SC2)cc1,"inconclusive: 39.8 µM [inhibitor, single point]"
10,Cc1ccc(C)n1-c1ccc(-c2ccn[nH]2)cc1,inactive
11,COc1ccc(OCCn2cnc(Cl)c2Cl)cc1,inactive
12,Fc1ccccc1-c1ccc(/C=N/Nc2nc3ccccc3[nH]2)o1,"inconclusive: 31.6 µM [inhibitor, single point]"
13,COc1ccc(CCNC(=O)c2cc(-c3cccs3)on2)cc1OC,inactive
14,Cc1cc(CN(C)Cc2cn(C)nc2-c2ccc(Oc3ccccc3)cc2)on1,"inconclusive: 39.8 µM [inhibitor, single point]"
15,CCOC(=O)CNC(=O)CSc1nnc(NC(=O)c2ccc(C)cc2)s1,"inconclusive: 35.5 µM [inhibitor, single point]"
16,COc1ccc(S(=O)(=O)N(Cc2cc3cc(C)ccc3[nH]c2=O)CC2CCCO2)cc1 (stereo not drawn),"inconclusive: 39.8 µM [inhibitor, single point]"
17,C=CCn1c(=O)c2ccccc2n2c(SCC(=O)Nc3sc(C(=O)N(CC)CC)c(C)c3C(=O)OCC)nnc12,"inconclusive: 25.1 µM [inhibitor, partial curve]"
18,COc1ccc(S(=O)(=O)N2CCOCC2)cc1C(=O)Nc1nc2ccccc2s1,"inconclusive: 35.5 µM [inhibitor, single point]"
19,Cc1ccc(S(=O)(=O)N[C@H](C(=O)N2CCC(C(=O)NCC(=O)O)CC2)C(C)C)cc1,"inconclusive: 39.8 µM [inhibitor, single point]"
20,COc1ccc(/C=N/n2cnc3c([nH]c4ccc(F)cc43)c2=O)cc1CN1CCCC1,"inconclusive: 22.4 µM [inhibitor, single point]"
21,C/C(CC(=O)Nc1ccc(F)cc1)=N\NC(=O)COc1ccccc1,inactive
22,N#Cc1c(N)nc2c(c1-c1ccc(F)cc1)CCC2,"inconclusive: 31.6 µM [inhibitor, partial curve]"
23,O=C1OC(c2ccccc2)=C/C1=C/c1cccs1,"inconclusive: 39.8 µM [inhibitor, single point]"
24,CN(C)c1ccc(C(=O)n2nnc3ccccc32)cc1,"inconclusive: 39.8 µM [inhibitor, single point]"
25,CC(C)OC(=O)CSc1nc(N)c(C#N)c(-c2cccs2)c1C#N,"inconclusive: 35.5 µM [inhibitor, single point]"

row,SMILES,Potency
1,CCN(CC)c1cc(C)c2ccccc2n1,inactive
2,C=CCSc1nc(N2CCOCC2)c2c(c1C#N)CC(C)(C)N(C)C2,"inconclusive: 35.5 µM [inhibitor, single point]"
3,O=C(Nc1ccc(N2CCCC2)c(Cl)c1)c1cccc(-c2cc3ccccc3oc2=O)c1,inactive
4,COCCOC(=O)C1=C(C)NC(=O)NC1c1cccs1 (stereo not drawn),inactive
5,O=C(CCc1ccccc1)NCCSc1ccccc1,inactive
6,N=C1SC(CC(=O)Nc2ccc([N+](=O)[O-])cc2)C(=O)N1c1ccccc1 (stereo not drawn),inactive
7,Nc1cccc(-c2nc3ccccc3[nH]2)c1,"inconclusive: 28.2 µM [inhibitor, partial curve]"
8,CCN1CCN(C(C)C(=O)Nc2c(C)n(C)n(-c3ccccc3)c2=O)CC1 (stereo not drawn),"inconclusive: 35.5 µM [inhibitor, single point]"
9,COc1ccc(-c2nc(N)n(S(=O)(=O)c3ccc(C)cc3)n2)cc1,"inconclusive: 39.8 µM [inhibitor, single point]"
10,Cc1cc2oc(=O)cc(COC(=O)Cn3cnnn3)c2cc1C(C)C,"inconclusive: 31.6 µM [inhibitor, single point]"
11,COc1ccc(-n2c(SCC(=O)N/N=C/c3ccccc3OCC(=O)O)nc3ccccc3c2=O)cc1,"inconclusive: 39.8 µM [inhibitor, single point]"
12,COc1cc(OC)cc(C(=O)Nc2nnc(Cc3ccc(OC)c(OC)c3)s2)c1,inactive
13,O=C(Nc1ccc(NC(=O)c2ccco2)cc1)c1ccc2c(c1)OCCO2,"inconclusive: 39.8 µM [inhibitor, single point]"
14,Cc1cccc(-n2nnnc2SCC(=O)c2cc(C)n(CC3CCCO3)c2C)c1 (stereo not drawn),inactive
15,C=CCc1cccc2cc(C(=O)NC)c(=O)oc12,"inconclusive: 25.1 µM [inhibitor, partial curve]"
16,CCn1c(C)nc2cc(C(=O)N/N=C(\C)c3ccc(OC)cc3O)ccc21,active: 12.6 µM
17,CCOCCCNC(=S)NCCNc1nc2ccc(C)cc2cc1C#N,"inconclusive: 31.6 µM [inhibitor, partial curve]"
18,CCOC(=O)c1cc(-c2cccs2)nc2onc(C)c12,"inconclusive: 31.6 µM [inhibitor, partial curve]"
19,COc1cccc(-c2cn3nc(C)c(C)nc3n2)c1,"inconclusive: 28.2 µM [inhibitor, partial curve]"
20,COc1cc(CN2CCN(c3ccccc3F)CC2)cc(OC)c1O,"inconclusive: 31.6 µM [inhibitor, single point]"
21,CCCc1cc(C(=O)Nc2ccccc2SC)no1,inactive
22,Cc1cc(/C=N/NC(N)=O)c(C)n1-c1ccc(F)cc1,"inconclusive: 35.5 µM [inhibitor, single point]"
23,COc1ccc(-c2cnnn2-c2ccc(NC(=O)/C=C/c3ccc(OC)c(OC)c3)cc2)cc1,"inconclusive: 35.5 µM [inhibitor, partial curve]"
24,Cc1cc(NC(=O)CSc2nc3c(cc2C#N)CCCCC3)no1,"inconclusive: 35.5 µM [inhibitor, partial curve]"
25,Cc1ccc(NC2c3ncccc3C(=O)N2c2ccccc2C)cc1C (stereo not drawn),active: 14.1 µM

row,SMILES,Potency
1,COc1ccc(OC)c(/C=C/C(=O)N(C)CC(=O)Nc2ccc(C)cc2)c1,"inconclusive: 31.6 µM [inhibitor, partial curve]"
2,Cc1cc[n+](C(C)C(=O)c2ccc(-c3ccccc3)cc2)cc1 (stereo not drawn),"inconclusive: 25.1 µM [inhibitor, single point]"
3,CC(C)(C)OC(=O)N1CC2Cc3[nH]c(=O)ccc3C(C2)C1 (stereo not drawn),"inconclusive: 39.8 µM [inhibitor, single point]"
4,CCCCNc1cnn(-c2ccccc2)c(=O)c1Cl,"inconclusive: 28.2 µM [inhibitor, single point]"
5,COc1ccccc1N1C(=O)N(C(C)=O)C2C1Nc1ccccc1N2C (stereo not drawn),"inconclusive: 8.91 µM [inhibitor, partial curve]"
6,O=C(CSc1nc2ccccc2[nH]1)N1CCCCC1,inactive
7,CC1C/C=C/C=C/C=C/C=C/C(O[C@@H]2O[C@H](C)[C@@H](O)[C@H](N)[C@@H]2O)CC2OC(O)(CC(O)CC3OC3/C=C/C(=O)O1)CC(O)C2C(=O)O (stereo partly drawn),"inconclusive: 8.91 µM [inhibitor, single point]"
8,O=C(NC1CC1)c1cc2c(s1)-c1ccccc1OC2,"inconclusive: 28.2 µM [inhibitor, partial curve]"
9,COc1ccc(OC)c(C(=O)CSc2nnnn2C)c1,inactive
10,CC(C)(C)NC(=O)C(=O)NNC(=O)c1ccccc1,inactive
11,COc1cccc(/C=N/Nc2ccc(C(=O)O)cc2)c1O,inactive
12,COc1cc(C(=O)NC(=S)Nc2ccccc2[N+](=O)[O-])cc(OC)c1OC,inactive
13,CCOC(=O)C1CCCN(C(=O)c2csc(-c3ccc4c(c3)CCO4)n2)C1 (stereo not drawn),"inconclusive: 25.1 µM [inhibitor, partial curve]"
14,Fc1cccc(CO/N=C/c2c(-c3ccccc3)nc3ccc(Cl)cn23)c1,"inconclusive: 3.98 µM [inhibitor, single point]"
15,COCC(C)NC(C(=O)Nc1cccc(C(C)=O)c1)c1ccccc1 (stereo not drawn),inactive
16,COc1ccc(-c2nc3ncccn3c2Br)cc1,"inconclusive: 31.6 µM [inhibitor, partial curve]"
17,CC(C)OP(=O)(CCP(=O)(OC(C)C)OC(C)C)OC(C)C,inactive
18,Fc1cccc(Cc2noc(CN3CCCN(C4Cc5ccccc5C4)CC3)n2)c1,"inconclusive: 35.5 µM [inhibitor, single point]"
19,Cc1cc(C)cc(NC(=S)NCc2cccn2C)c1,inactive
20,COc1ccccc1-c1nn2c(C3COc4ccccc4O3)nnc2s1 (stereo not drawn),"inconclusive: 12.6 µM [inhibitor, partial curve, poor fit]"
21,Cc1c(NC(=S)NC(=O)c2ccc(-c3ccc(Cl)cc3)o2)cccc1C(=O)O,"inconclusive: 39.8 µM [inhibitor, single point]"
22,COc1cc(OC)cc(C(=O)N[C@H](C(=O)OCC(=O)Nc2sccc2C#N)C(C)C)c1,inactive
23,CCOC(=O)c1sc2nc(NC(=O)COc3ccccc3)sc2c1C,"inconclusive: 8.91 µM [inhibitor, single point]"
